Reference: the supplement of paper PMC3334620
In all, about 33,000 sequences were measured (“E-score (-0.5 to 0.5)”: median about -0.012, highest 2% from about 0.27 on). The list shows a part of the results.

target: T1, Vhr1 (UniProt P40522); test: PBM E-score (8-mer binding enrichment) (E-score (-0.5 to 0.5)); higher = stronger / more preferred TF binding; most listed sequences are background and not binding sites; settings: protein concentration: 200 nM; construct: GST-full length
T1 sequence: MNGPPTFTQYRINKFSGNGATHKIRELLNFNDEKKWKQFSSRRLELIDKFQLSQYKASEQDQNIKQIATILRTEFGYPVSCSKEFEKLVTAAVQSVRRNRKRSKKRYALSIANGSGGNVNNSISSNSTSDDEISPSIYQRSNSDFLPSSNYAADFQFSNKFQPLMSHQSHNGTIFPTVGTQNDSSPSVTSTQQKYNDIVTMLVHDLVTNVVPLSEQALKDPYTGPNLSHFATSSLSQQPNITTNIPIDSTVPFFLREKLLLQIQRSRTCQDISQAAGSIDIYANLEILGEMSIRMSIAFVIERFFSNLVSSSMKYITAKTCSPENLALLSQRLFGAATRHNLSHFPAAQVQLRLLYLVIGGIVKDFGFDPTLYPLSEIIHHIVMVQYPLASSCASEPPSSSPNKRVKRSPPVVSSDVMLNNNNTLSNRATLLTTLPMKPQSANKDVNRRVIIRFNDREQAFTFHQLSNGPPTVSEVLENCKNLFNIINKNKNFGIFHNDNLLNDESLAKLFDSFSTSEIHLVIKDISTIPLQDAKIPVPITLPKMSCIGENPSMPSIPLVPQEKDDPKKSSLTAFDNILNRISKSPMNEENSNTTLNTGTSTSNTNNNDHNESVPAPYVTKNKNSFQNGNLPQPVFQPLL
Outline: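 Yeast transcription factors, full-length or as DNA-binding domains, were expressed with a GST tag using PURExpress in vitro transcription/translation. At about 100-200 nM they were applied to universal all-10-mer Agilent arrays, double-stranded by primer extension on fresh or once-stripped slides. Fluorescent anti-GST detected bound protein, and masliner normalised the scans. E-scores for ungapped eight-base words, pooled with reverse complements, came from the Universal PBM Analysis Suite.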

Sequence | PBM E-score
CATCTATA | 0.0881
CCGCCCGG | 0.0777
GAGCAGTA | 0.117
GCCTCAGC | -0.198
AATTATGC | -0.0219
GACAGAAC | -0.136
CTGCAAGA | -0.0752
ATAACCAT | 0.0551
ACCCCATG | 0.0775
GCTCCATA | -0.00565
CGTGCTCC | 0.0843
ATTATCGG | -0.191
GGGAGTCA | 0.47
ACCCCGGG | 0.00711
AGAGTCCA | 0.144
ATTCGGTG | 0.106
AAGCTACT | -0.0354
CTACCGGC | -0.0946
ACCTTGCG | -0.0156
CAAAGAAA | -0.165
TTCCGGAA | -0.184
GACTGACA | 0.15
AAATCCGT | -0.0877
GACTCTCC | 0.259
AACAGCTC | 0.0178

Sequence | PBM E-score
GCGCCCCA | -0.131
TAAGTAAA | -0.181
AGGAAATG | -0.0831
AACCGCCT | 0.1
ACGATTAT | 0.00603
AGCAGGTG | 0.0643
ATATGAAG | -0.0333
CACTAGCC | 0.0788
ATGTGCAA | 0.0727
CACAAAAA | -0.00088
AAAGTTAG | 0.029
ATGTCGCC | 0.0236
CATACCAG | -0.0296
GCTGGTTA | 0.0858
ACTGTACG | -0.00271
CAAGCCAG | 0.00992
AGCCTATC | -0.105
CAAATGGA | -0.0188
CCGTACAA | -0.0297
CGAGCCAG | 0.219
ACACTGGT | 0.00021
ATAACGTG | -0.095
AATCCACC | 0.154
CAGTTGCG | 0.107
AAGCTAAA | -0.193

Sequence | PBM E-score
ACAGTTTG | -0.0891
ATTTTGAG | 0.0172
CGGTCACC | 0.0171
AGCGGGCA | 0.0171
ACTTACCC | 0.205
CCTGATGA | 0.195
AAGAATCG | 0.0511
GACAACGC | -0.00826
ACTTCGTA | -0.201
AGCGTCAG | -0.246
GTAAGCTA | -0.047
CAAACAAC | 0.165
ATAAACCC | 0.223
ACTTCTGA | 0.137
ACTACCTC | 0.09
CCCACACA | 0.0717
ACGACCTG | -0.112
TAAGCCGA | -0.13
AAGTGAGC | -0.0858
GGGGATGA | 0.0985
AACTCCTT | -0.0746
CTGGATGC | -0.126
CCGTTGCA | -0.0529
ACGTGCAG | 0.14
CAATTGAA | -0.2

Sequence | PBM E-score
GTTATGAA | 0.042
ACCTACCG | -0.0874
CGCTGAAG | -0.151
ACCTCGCG | -0.0715
CTCTTTGA | -0.253
GCCACCCA | 0.0667
ATCAATTG | 0.136
ATGAAGGA | 0.0611
CCACCCAC | 0.231
AGTGAGGC | -0.0734
GCCTGCTA | -0.166
AGCACGAA | 0.14
CTTATGCA | -0.0585
GTAAGTAC | -0.0434
AGGTTCTC | -0.119
CTTCGGCA | 0.00118
ACCAAATC | 0.00093
AGATTACC | 0.129
GAGACTTA | -0.164
AGCCATAA | -0.00291
AGACATCC | 0.0426
CTCCATGA | 0.125
AAGCGTAA | -0.215
TCAAACGA | -0.0752
GACATATA | 0.084

Sequence | PBM E-score
CATTTTAC | -0.0327
ATTCATTC | 0.165
AGGCCCCT | -0.3
TACTGCGA | 0.0661
CACGGACA | -0.0785
ACGAGTTA | 0.162
CCCCAAGA | -0.0317
GCAGCTTA | -0.0202
CGCTATTC | 0.0728
AATGCCTC | 0.0378
CAGCCGTC | 0.165
ATTGTATG | 0.141
TAGTAACA | 0.00961
AAATTGTA | 0.0507
CCTCCCAC | 0.0568
TAATGGTA | 0.118
TAATTGCA | 0.0646
ATACCGCC | 0.124
GTCTTGTA | -0.0671
ATCTGGCC | -0.109
GTCTAGAC | -0.298
AACGTTAT | -0.0644
ATTGCGGG | 0.0612
CCGGATCG | 0.0761
ACGTAACT | -0.0668

Sequence | PBM E-score
CTCATTCC | 0.124
ACATACCA | 0.0165
GGTCGGGA | 0.147
CGCATGGC | 0.131
GAAAGACA | -0.0138
CGGCAATC | 0.0215
AGTATTTG | -0.00113
GATGACGC | -0.0256
AGAGCAAC | -0.17
GTGTGCCA | -0.0072
CTGTGAGA | 0.0386
AAGCGCTC | -0.145
ATTCCTAC | 0.0429
AAGTCAAT | 0.0223
ATTATCCG | 0.143
AGTCACGA | 0.411
CGTTACTA | -0.0295
CCGGAGGC | -0.141
CTCTCACA | -0.0943
CGTTCTGA | -0.113
GCAGTTCA | -0.0212
AGAACTCG | -0.177
CAGGTTTC | 0.0965
CCGGGTTA | -0.0527
AAGACCGA | -0.0192

Sequence | PBM E-score
AGCGCTAT | 0.0728
GTTGCTGA | 0.156
CCTTTTCC | -0.177
ACAAACAC | 0.221
GGTCAACA | 0.117
CATTTTGC | -0.0629
CATCAACC | 0.134
AACCAGCG | -0.0412
AGGGATAC | -0.202
CAACACCA | 0.0182
GGTGATGA | 0.233
GGAGATGA | 0.179
AAACGAAC | -0.0903
CGCTACCA | -0.0821
TACGAGCA | -0.0868
GATTCCTA | 0.174
ACTAGAAA | -0.0971
AACCCAAC | 0.109
TAGTCCCA | -0.0146
ATGAAGCA | -0.0188
ACTTTGAC | -0.0831
CTCAATAC | 0.226
